The list shows a part of the results. The main result of the screen is listed elsewhere. These columns were measured beside it and carry no call. The list favours compounds with an active or inconclusive main result.

The experiment is described as follows: beta-lactam sensitization of Mtb H37Rv, H37Rv (AID 434955).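 Also: growth measured after seven days incubation then overnight dye step; 0% = bacteria only wells and 100% = bacteria with antibiotic.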 The following applies: M. tuberculosis H37Rv growth with meropenem, percent inhibition; measured here: primary screen without meropenem; at 25 µM.
`NCC(c1ccc(Cl)cc1Cl)c1c[nH]c2ccccc12` (configuration not stated): the inhibition was 34.8%.

In the case of `Cc1ccsc1/C=N/Nc1ncc(Cl)cc1Cl`, the inhibition came out at 43%. In the case of `Cc1ccccc1/C=N/n1c(C2CCCCC2)n[nH]c1=S`, the inhibition turned out to be 7.62%. As for `N#C/C(C(=O)NCc1ccco1)=C1/SC=C(c2ccccc2)N1c1ccccc1`, the inhibition was -10.6%. For `CC(C)(C)c1ccc(OCC(=O)NNC(=O)CCc2ccccc2)cc1` the value was -5.36%. In the case of `Cc1nc2c(c(C)nn2-c2ccccc2)c(C)c1CCC(=O)NCCCOC(C)C`, the inhibition amounted to 2.12%. To `Cc1ccccc1-n1c(O)c(C=Nc2ccc(N(C)C)cc2)c(=O)[nH]c1=O` belongs -5.28%; to `O=C(CSc1nnc(-c2ccoc2)o1)N1CCOCC1`, -0.77%; to `N/C(=N\OC(=O)Oc1ccccc1)c1cccc([N+](=O)[O-])c1`, -0.02%.

Take `COc1cccc(C2c3c(oc4ccccc4c3=O)C(=O)N2c2ccccn2)c1` (configuration not stated): the inhibition is -2.73%. For `COC(=O)c1cc(OC)c(OC)cc1NC(=O)Nc1ccccc1OC` the value was -2.09%; for `COCC1CCCCN1C(=O)c1ccc(OC2CCN(Cc3ccccn3)CC2)cc1` (configuration not stated), -0.49%. On to `COc1cc(/C=C/C(=O)OCC(=O)N(C)C2CCS(=O)(=O)C2)ccc1OC(F)F` (configuration not stated), for which the inhibition was found to be 12.4%. For `CC(C)[C@H](NC(=O)OC(C)(C)C)C(=O)N1CCC(C(=O)N[C@@H](C)C(=O)Nc2ccc(F)cc2)CC1` the value was 5.9%; for `COC(=O)Cc1cc(=O)n2[nH]c(C)nc2n1`, -2.07%. As to `COc1ccc(-c2csc(NC(=O)c3c(C)noc3C)n2)cc1`, the inhibition was 59.7%. Turning to `C[C@H]1CCC[C@@H](O)CCC/C=C/c2cc(O)cc(O)c2C(=O)O1`, the inhibition came out at 3.39%. For `COc1ccc(/C=N/NC(=O)c2c(Br)cnn2C)c2ccccc12` the value was 1.7%.

As to `C[C@]12CCC(=O)CC1CCC1C2CC[C@@]2(C)C1CC[C@@]21CCO1` (some centres not stated), the inhibition worked out at 0.8%. Turning to `CCOC(=O)c1sc2ccccc2c1NC(=O)c1coc2ccccc2c1=O`, the inhibition amounted to 33.7%. In the case of `CCCCCC(=O)NNC1=NCC(Cc2ccccc2)S1` (configuration not stated), the inhibition is 3.7%. For the compound `O=C(NCc1ccc2c(c1)OCO2)c1ccc(Cl)c(S(=O)(=O)NCc2ccccc2)c1`, the inhibition is -9.89%. For `O=C(NCc1ccc(F)c(F)c1)C1CCC(=O)N(CC2CCCCC2)C1` (configuration not stated) the value was 3.56%; for `O=C(CNC(=S)N(CCCN1CCOCC1)Cc1cccs1)NCCN1CCOCC1`, -6.31%; for `CCOC(=O)c1c(NC(=O)C(=O)N/N=C/c2ccccc2O)sc2c1CCCCC2`, -7.54%. To `CC1CCN(CCCNC(=O)c2ccc3c(=O)n(CCc4ccccc4)c(=O)[nH]c3c2)CC1` belongs -6.92%; to `CCc1ccc(CN(C)C(=O)C2CCC(=O)N(CCCN3CCCC3=O)C2)cc1` (configuration not stated), -8.18%. For `COCCNC(=O)Cn1cc2c(n1)CCCCC2` the value was -3.93%; for `COc1ccc(C(=O)COC(=O)C(CC(C)C)N2C(=O)c3ccccc3C2=O)cc1` (configuration not stated), -8.04%. For the compound `CN1C(=O)C(C)(C)c2cc(S(=O)(=O)NCCc3ccc(Cl)cc3)ccc21`, the inhibition was -3.5%.

Consider `CCCN1CCN(CCCNC(=O)CN2C(=O)c3cccnc3Oc3ccc(C)cc32)CC1`, for which the inhibition was 4.33%. As to `CN1C(=O)C(C)(C)c2cc(S(=O)(=O)NCc3ccc(Cl)cc3)ccc21`, the inhibition was found to be 0.78%. For `CC(C)(C)C1=Nn2c(nnc2-c2ccccc2F)SC1` the value was 26.6%. For the compound `CCOC(=O)N1CCC(NC(=O)c2cc(COc3ccc(F)cc3Cl)on2)CC1`, the inhibition is -13.5%. `CSCCC(NC(=O)CCC(=O)OC1CC[C@H]2[C@@H]3CC[C@H]4CC(=O)CC[C@]4(C)[C@H]3CC[C@]12C)C(=O)O` (some centres not stated): the inhibition is 2.77%. As for `O=C(CSc1nnc(NC(=O)c2ccco2)s1)NC1CCCCC1`, the inhibition is -2.64%. As to `CCOc1ccc(/C=C/C(=O)C(C(N)=O)=C2SCCS2)cc1`, the inhibition was -3.28%. For `CCN(CC)S(=O)(=O)c1ccc(N2CCOCC2)c(NC(=O)C2CSC3(C)CCC(=O)N23)c1` (configuration not stated), the inhibition stood at 0.15%. To `O=C(NC(=S)Nc1ccc(N2CCCC2)cc1)c1ccc(F)cc1` belongs 92.6%; to `N/C(=N\OC(=O)C1CCCCC1)c1cccc([N+](=O)[O-])c1`, 92.7%. In the case of `COc1ccc(NC(=O)CSc2nncn2C)c([N+](=O)[O-])c1`, the inhibition turned out to be 26.4%. To `COC(=O)c1c(-c2ccncc2)csc1NC(=O)c1ccoc1C` belongs 57.7%; to `Clc1ccccc1/C=N/c1cc(-c2ccccc2)nn1-c1ccccc1`, 2.62%. On to `CCc1cc(=O)[nH]c(SC/C=C/c2ccccc2)n1`, for which the inhibition is -5.83%.

As for `Cc1cccc(-n2ncc3c2CCCC3NC(=O)CCN2Cc3ccccc3C2=O)c1C` (configuration not stated), the inhibition came to 1.54%.

As for `CCOC(=O)c1ccccc1NC(=O)COC(=O)CN1C(=O)C2CC=CCC2C1=O` (configuration not stated), the inhibition is 3.44%. On to `CC(OC(=O)Cc1n[nH]c(=O)c2ccccc12)C(=O)Nc1ccc(Cl)cn1` (configuration not stated), for which the inhibition was -1.51%. Consider `CCCC(=O)N(CCN1CCOCC1)c1nc2c(OCC)cccc2s1`, for which the inhibition worked out at 3.47%. With `O=C(NCCOc1ccccc1F)c1cc([N+](=O)[O-])ccc1N1CCOCC1`, the inhibition is -4.94%.

Turning to `CN(/N=C/C=C/c1ccccc1)c1cc(=O)n(C)c(=O)[nH]1`, the inhibition is -0.21%.

`CCOCCCNC(=O)c1ccc(N(C)S(=O)(=O)c2ccc(OC)cc2)cc1`: the inhibition is -3.48%. Turning to `COc1ccc(-c2nc(-c3cccc(C)c3)no2)cc1OC`, the inhibition is 19.1%. For `CCc1nc(N)c(C#N)c(-c2ccncc2)c1C`, the inhibition was -2.29%. For `CC(=O)N1CCC(C(=O)Nc2nc(-c3ccccc3)ns2)CC1`, the inhibition stood at 1%. Consider `C=CCn1c(SCc2nc3sc4c(c3c(=O)[nH]2)CCCC4)nc2ccccc2c1=O`, for which the inhibition amounted to 0.37%. To `Cc1ccc(C(=O)N2CCN(c3ccccc3F)CC2)cc1NC1=NC2CS(=O)(=O)CC2S1` (configuration not stated) belongs 7.84%. To `O=C(CCN1c2ccccc2Sc2ccccc21)Oc1ccccc1` belongs -3.35%; to `COc1ccc(C)cc1NC(=O)C1CCCN(S(=O)(=O)c2cccc3cccnc23)C1` (configuration not stated), 3.04%; to `O=C(Nc1cccc2ccccc12)c1ccc([N+](=O)[O-])s1`, 8.42%. To `COc1ccc(CNC(=O)C2CCC(=O)N(CCCN3CCCC3=O)C2)cc1` (configuration not stated) belongs 3.13%; to `S=C(Nc1ccccc1)Nc1ccc(Cl)cn1`, 4.69%; to `CCOC(=O)CSc1nnc(CNC(=O)c2ccc(OC)cc2)n1C1CCCCC1`, -11.8%. For `CN1CCN(c2ccc(NC(=O)c3ccc(-c4cccc([N+](=O)[O-])c4)o3)cc2)CC1`, the inhibition was 0.14%.

As for `O=C(CSc1nnc(CNC(=O)c2ccc(F)cc2)o1)NCc1ccccc1Cl`, the inhibition came to 1.92%. With `CCn1cc(C2=NCC(C)O2)c2ccccc21` (configuration not stated), the inhibition stood at 3.01%. Take `N#Cc1ccc(COC(=O)c2ccc3c(=O)[nH]c(CN4CCOCC4)nc3c2)cc1`: the inhibition was -9.6%. To `O=S(=O)(c1ccc(Cl)cc1)c1nc(-c2ccccc2F)oc1NCCN1CCOCC1` belongs 6.22%.

As usually defined, the inhibition is the drop in the measured response relative to a control, in per cent.
